According to PubChem BioAssay AID1347055 (National Center for Advancing Translational Sciences (NCATS), 2019):
In all, about 54,000 compounds went through this assay and about 120 (0.22%) were called active. The inconclusive results got no clear call from the source; some entries with a clear call stand among them for comparison. Calls come from the whole dose curve; as a rule, active = well fitted inhibition curve with a large enough effect; inconclusive = small, poorly fitted or top-dose-only effect, or effect the other way; inactive = flat fitted curve, though single readings scatter. Potencies of inconclusive entries are left out as doubtful fits.

Target: Fumarate hydratase, mitochondrial (Homo sapiens) (UniProt P07954)
Sequence of UniProt P07954 (P07954 whole entry, looked up): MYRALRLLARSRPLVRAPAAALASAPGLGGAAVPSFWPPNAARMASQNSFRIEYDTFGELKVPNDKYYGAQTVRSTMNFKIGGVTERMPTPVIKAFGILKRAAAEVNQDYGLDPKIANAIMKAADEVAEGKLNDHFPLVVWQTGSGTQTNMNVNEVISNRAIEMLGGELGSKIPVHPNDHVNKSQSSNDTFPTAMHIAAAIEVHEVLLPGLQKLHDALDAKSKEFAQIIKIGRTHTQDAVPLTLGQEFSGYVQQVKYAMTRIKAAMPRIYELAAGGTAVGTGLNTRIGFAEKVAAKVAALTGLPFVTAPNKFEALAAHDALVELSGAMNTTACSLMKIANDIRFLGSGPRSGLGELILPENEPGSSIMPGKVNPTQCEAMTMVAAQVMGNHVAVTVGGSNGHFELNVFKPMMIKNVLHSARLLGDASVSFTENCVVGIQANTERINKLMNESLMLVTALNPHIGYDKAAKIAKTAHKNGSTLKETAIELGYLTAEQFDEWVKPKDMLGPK
Assay: Identification of activators of human fumarate hydratase by quantitative high-throughput screening; note: the screen sought activators but most active calls are inhibition curves; nearly all actives have a fitted effect of over 45% in size
Conditions: FH coupled MDH/diaphorase resazurin fluorescence, 15 min; activity change, negative = inhibition: at 79.9 µM (top of the series)
% is set by controls: 0 for no effect and ±100 for the full control effect; potency is the fitted concentration of half-maximal effect; tags give direction and shape of the fitted curve.

**Q.** How did the Potency turn out when O=C(NCC1CCN(Cc2cccc(Cl)c2)CC1)Nc1ccc(F)c(Cl)c1 was run?
**A.** inconclusive [inhibitor, partial curve, poor fit]

**Q.** With COc1ccccc1S(=O)(=O)Cc1ccc(C(=O)N2CCN(c3cc(Cl)ccc3C)CC2)o1 as the compound, how does the Potency read?
**A.** inconclusive [inhibitor, partial curve]

**Q.** Which Potency does the source give for COc1cc(C2c3c(-c4cc(C)ccc4O)n[nH]c3C(=O)N2Cc2ccco2)cc(OC)c1OC (configuration not stated) here?
**A.** active: 22.4 µM

**Q.** Which Potency does the source give for CCOC(=O)c1cc(-c2ccc(F)cc2)n(CCC(=O)Nc2cc(OC)cc(OC)c2)c1C here?
**A.** inconclusive [inhibitor, partial curve, poor fit]

**Q.** COc1ccc(NC(=O)c2nnn(-c3ccc(C(C)C)cc3)c2C)c(OC)c1 was tested. Which Potency did it give?
**A.** inconclusive [inhibitor, single point]

**Q.** For O=C(O)/C=C/c1ccc(-c2ccc(O)c(C34CC5CC(CC(C5)C3)C4)c2)cc1, which Potency is on record?
**A.** inconclusive [inhibitor, single point]

**Q.** How did the “activity change, negative = inhibition” value turn out when CCOC(=O)c1c(C)[nH]c(CCC(=O)NCc2ccc(OC)cc2OC)c1C was run?
**A.** inactive: -13.5%

**Q.** For FC(F)(F)c1cccc(Nc2nc3nonc3nc2Nc2ccc(Cl)cc2)c1, which Potency is on record?
**A.** inconclusive [inhibitor, partial curve]

**Q.** For C[C@H](NC(=O)/C(C#N)=C/c1ccc(O)c(O)c1)c1ccccc1, which Potency is on record?
**A.** inconclusive [inhibitor, partial curve]

**Q.** With C=CC(=O)N1CCc2ccc(-n3c(=O)ccc4cnc5ccc(-c6cnn(C)c6)cc5c43)cc21 as the compound, how does the Potency read?
**A.** inconclusive [inhibitor, single point]

**Q.** Which Potency does the source give for CC(C)c1ccc(C2CC(=O)N3CN(C4CCCCC4)CSC3=C2C#N)cc1 (configuration not stated) here?
**A.** inconclusive [inhibitor, single point]

**Q.** With Cc1cc(CS(=O)(=O)c2ccccc2)cc(OCc2ccc(CN3CCC[C@@H]3CO)cc2)c1 as the compound, how does the “activity change, negative = inhibition” value read?
**A.** inactive: -4.73%

**Q.** How did the Potency turn out when COc1ccc(C)cc1NC(=O)N1CC(C)Sc2ccccc21 (configuration not stated) was run?
**A.** inconclusive [inhibitor, partial curve, poor fit]

**Q.** How did the Potency turn out when Fc1ccc2[nH]c(-c3cccs3)cc2c1 was run?
**A.** inconclusive [inhibitor, single point]

**Q.** How did the Potency turn out when CCOc1ccc(NC(=O)C2CCCN(S(=O)(=O)c3c(C)noc3/C=C/N(C)C)C2)cc1 (configuration not stated) was run?
**A.** inconclusive [inhibitor, full curve, poor fit]

**Q.** For Cc1cc(CN2CCN(c3cccc(C)c3C)CC2)cs1, which “activity change, negative = inhibition” value is on record?
**A.** inactive: -15.6%

**Q.** Which Potency does the source give for CCC1CCCCN1S(=O)(=O)c1cc(C(=O)Nc2ccc(C)c(F)c2)ccc1F (configuration not stated) here?
**A.** inconclusive [inhibitor, single point]
